Some of the results follow. Viral Rep nickase domains cut single-stranded DNA in vitro (3 µM enzyme, 1 h, 37 °C); shown is the middle of each 90-letter strand. Numbers give uncut DNA relative to the enzyme-free pool, as log2; strong cutting gives strongly negative numbers. There is no active / inactive call. Shares of all reads are compared; values above 0 arise when much of the pool is cut.
What was measured:
Experiment in all cases: uncleaved DNA left, log2 of reads against the no-enzyme library (log2 ratio); higher = less cleavage (more negative = more Rep cleavage of the k-mer); sequences stand for … in CTCGTCCG…ACCGGAGA
[1] = system: T1, Rep nickase domain of Muscovy duck circovirus
T1 sequence (residues 1-111, tag not shown): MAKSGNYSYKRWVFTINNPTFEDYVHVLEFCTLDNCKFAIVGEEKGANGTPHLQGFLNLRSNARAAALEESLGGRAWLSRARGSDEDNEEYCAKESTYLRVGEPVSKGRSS
Method: (§1)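 A pool of 90-nt single-stranded DNAs with seven random bases just before the constant AC of the nick site (name = the seven bases) was cut by 3 µM recombinant His6-SUMO-tagged Rep nickase domain (300 nM DNA, 50 mM HEPES pH 8.0, 50 mM NaCl, 1 mM MnCl2, 1 h, 37 °C, three replicates). Uncut DNA was amplified and sequenced.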

[2] = system: T2, Rep nickase domain of banana bunchy top virus
T2 sequence (residues 1-94, tag not shown): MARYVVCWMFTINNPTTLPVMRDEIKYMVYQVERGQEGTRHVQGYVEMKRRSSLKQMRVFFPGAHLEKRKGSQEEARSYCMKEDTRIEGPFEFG
Method: as §1

[3] = system: T3, Rep nickase domain of cabbage leaf curl virus
T3 sequence (residues 1-116, tag not shown): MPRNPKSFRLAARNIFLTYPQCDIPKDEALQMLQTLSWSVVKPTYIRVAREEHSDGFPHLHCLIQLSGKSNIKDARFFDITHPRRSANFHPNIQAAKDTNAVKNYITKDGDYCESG
Method: as §1

[4] = system: T4, Rep nickase domain of chickpea chlorotic dwarf virus
T4 sequence (residues 1-124, tag not shown): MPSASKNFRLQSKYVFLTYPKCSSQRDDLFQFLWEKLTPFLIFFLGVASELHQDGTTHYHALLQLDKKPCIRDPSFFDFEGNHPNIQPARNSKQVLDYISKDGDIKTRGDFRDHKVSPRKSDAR
Method: as §1

[5] = system: T5, Rep nickase domain of faba bean necrotic yellows virus
T5 sequence (residues 1-98, tag not shown): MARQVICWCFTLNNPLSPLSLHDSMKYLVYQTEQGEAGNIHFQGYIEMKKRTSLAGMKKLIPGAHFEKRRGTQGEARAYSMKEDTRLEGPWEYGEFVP
Method: as §1

[6] = system: T6, Rep nickase domain of maize striate mosaic virus
T6 sequence (residues 1-117, tag not shown): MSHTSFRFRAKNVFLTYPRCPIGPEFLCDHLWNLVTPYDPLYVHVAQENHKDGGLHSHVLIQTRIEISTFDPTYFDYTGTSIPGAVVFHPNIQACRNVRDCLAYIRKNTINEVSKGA
Method: as §1

[7] = system: T7, Rep nickase domain of porcine circovirus 2
T7 sequence (residues 2-116, tag not shown): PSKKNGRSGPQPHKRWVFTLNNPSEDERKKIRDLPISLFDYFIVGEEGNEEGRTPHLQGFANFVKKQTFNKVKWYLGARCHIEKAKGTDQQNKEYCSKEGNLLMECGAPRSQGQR
Method: as §1

[8] = system: T8, Rep nickase domain of tomato golden mosaic virus
T8 sequence (residues 1-124, tag not shown): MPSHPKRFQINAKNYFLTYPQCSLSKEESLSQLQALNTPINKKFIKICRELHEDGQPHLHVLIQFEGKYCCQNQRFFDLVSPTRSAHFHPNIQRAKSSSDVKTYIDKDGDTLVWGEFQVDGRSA
Method: as §1

[9] = system: T9, Rep nickase domain of tomato yellow leaf curl virus
T9 sequence (residues 1-136, tag not shown): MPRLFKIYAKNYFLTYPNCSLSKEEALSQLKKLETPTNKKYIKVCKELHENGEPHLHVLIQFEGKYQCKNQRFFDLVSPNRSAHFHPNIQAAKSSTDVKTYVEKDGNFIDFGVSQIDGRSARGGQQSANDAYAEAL
Method: as §1

[10] = system: T10, Rep nickase domain of wheat dwarf virus
T10 sequence (residues 1-137, tag not shown): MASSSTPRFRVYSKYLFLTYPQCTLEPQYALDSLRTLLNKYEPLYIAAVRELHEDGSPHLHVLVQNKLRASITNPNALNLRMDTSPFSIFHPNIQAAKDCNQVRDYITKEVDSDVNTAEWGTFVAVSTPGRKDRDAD
Method: as §1

Sequence | uncleaved DNA left (log2) [1] | uncleaved DNA left (log2) [2] | uncleaved DNA left (log2) [3] | uncleaved DNA left (log2) [4] | uncleaved DNA left (log2) [5] | uncleaved DNA left (log2) [6] | uncleaved DNA left (log2) [7] | uncleaved DNA left (log2) [8] | uncleaved DNA left (log2) [9] | uncleaved DNA left (log2) [10]
AATTGAG | 0.00503 | 0.0414 | -0.436 | 0.909 | 0.0922 | -0.0905 | 0.125 | 0.0021 | 0.158 | -0.0173
GGCCGTC | -0.0746 | 0.0296 | 0.378 | 0.886 | -0.127 | 1.36 | 0.0212 | -0.0952 | -0.0325 | 0.0365
GCTGTAC | 0.0567 | -0.0885 | 0.0257 | 0.141 | -0.0962 | 0.505 | 0.0938 | 0.0121 | 0.0356 | -0.0107
AAGACTT | 0.0447 | -0.114 | 0.103 | 0.42 | -0.0702 | 1.68 | -3.07 | 0.176 | 0.179 | 0.154
GATGGGC | 0.0803 | 0.0907 | 0.599 | 1.12 | -0.0676 | 1.17 | 0.288 | -0.00843 | 0.0371 | 0.0334
GAACCCC | -0.179 | 0.0118 | 0.312 | -0.186 | 0.0955 | 0.919 | -0.58 | 0.0735 | 0.143 | 0.111
TCGCCGG | -0.0848 | 0.0842 | 0.458 | 1.25 | -0.0562 | 1.78 | 0.0313 | 0.0708 | -0.162 | -0.109
AAAACAC | 0.0334 | 0.114 | -0.103 | -0.7 | 0.106 | -0.713 | 0.0571 | 0.0518 | 0.0357 | 0.0626
TTACGAA | -0.0429 | -0.0993 | -0.00127 | -1.04 | -0.0228 | -0.496 | -0.125 | -0.0328 | -0.0608 | -0.0798
CCTCTAT | -0.0132 | -0.201 | -0.0315 | -0.706 | -0.186 | -0.276 | -0.192 | -0.135 | -0.198 | -0.0643
GACCATA | 0.0546 | 0.00657 | 0.0488 | -0.589 | 0.0315 | 0.48 | -0.0273 | -0.0641 | 0.102 | 0.0689
CCAAAAG | 0.087 | 0.141 | -0.817 | -0.202 | 0.0649 | -1.21 | 0.141 | -0.0665 | -0.0396 | 0.0577
ACTCACT | -0.0162 | -0.00744 | -0.29 | -2.13 | -0.0491 | -0.849 | -2.6 | 0.0586 | -0.164 | -0.0786
AAGCCTG | 0.0589 | 0.032 | 0.238 | 1.24 | 0.032 | 1.74 | 0.143 | 0.0881 | -0.0758 | 0.0126
GCCTGTC | 0.0674 | -0.0405 | 0.3 | 0.465 | 0.00409 | 0.121 | 0.0783 | 0.163 | -0.132 | -0.111
ATTGCGA | 0.0691 | 0.0412 | 0.163 | 1.24 | 0.0661 | 1.29 | 0.0996 | 0.0556 | 0.0262 | -0.0175
CCACGAT | -0.218 | 0.0164 | -0.0493 | -1.1 | -0.116 | 0.162 | -0.0931 | -0.168 | -0.07 | -0.107
GAACACG | -0.0499 | -0.0798 | -0.721 | -0.413 | -0.00399 | -0.747 | 0.216 | -0.0548 | 0.0153 | -0.088
CTGAACT | 0.0113 | -0.0318 | 0.103 | -1.12 | 0.0332 | 0.541 | 0.0512 | 0.0335 | -0.00779 | 0.116
TCACGAA | 0.142 | -0.0652 | 0.00636 | -0.431 | 0.025 | -0.742 | 0.0585 | 0.0581 | 0.0219 | -0.0396
ACTTGAT | 0.0255 | 0.0441 | -0.0992 | -0.313 | 0.0283 | -0.453 | -1.44 | 0.135 | -0.00276 | -0.0189
GCTGTTA | -0.079 | -0.0863 | -0.112 | 0.169 | -0.154 | 0.833 | -0.18 | -0.00908 | -0.115 | -0.133
ACGAACA | -0.0763 | 0.00634 | -0.3 | -1.63 | 0.0736 | -0.698 | -0.106 | 0.02 | -0.18 | -0.0441
GTAGCGG | -0.0264 | 0.00421 | 0.18 | 0.858 | -0.161 | 0.84 | 0.111 | 0.126 | -0.206 | 0.0691
TTCGGCG | 0.0675 | 0.00137 | -0.634 | 0.648 | 0.0149 | -0.477 | 0.128 | 0.0601 | 0.105 | -0.0696
GCATTAG | -0.0363 | -0.121 | -0.946 | -0.379 | -0.0388 | -1.06 | 0.142 | -0.113 | -0.0979 | -0.109
CAGTATG | 0.107 | 0.134 | -0.477 | -0.247 | -0.0615 | -0.795 | -0.32 | 0.0551 | 0.0344 | -0.0778
CGGAGAC | -0.00299 | -0.107 | 0.549 | 1.44 | -0.128 | 1.73 | 0.174 | -0.0214 | -0.0503 | -0.0177
TTTTCCG | 0.00344 | -0.135 | -0.891 | -0.331 | -0.0116 | -1.21 | 0.104 | -0.147 | -0.0635 | -0.139
AACATAA | 0.132 | 0.115 | -0.0924 | -0.798 | 0.169 | -0.651 | 0.132 | 0.125 | 0.125 | 0.144

From the supplement of paper PMC7826260
